{"source": "PubChem BioAssay AID504332", "about": "(National Center for Advancing Translational Sciences (NCATS), 2011)", "note": "Screen size: about 350,000 compounds; about 31,000 (8.9%) were called active. The shares of active, inactive and inconclusive entries below differ from those in the screen. Calls follow the shape of the dose curve; as a rule, active = well fitted inhibition curve with a large enough effect; inconclusive = small, poorly fitted or top-dose-only effect; inactive = no such curve, though single readings can be large or run the other way. A potency beside an inconclusive call is a rough fit, not a confirmed value. % is scaled to controls: 0 for no effect and ±100 for the full control effect; potency is read from the fitted curve at half-maximal effect; tags tell the direction and shape of the fitted curve.", "data": [{"target": "Histone-lysine N-methyltransferase EHMT2 (Homo sapiens) (UniProt Q96KQ7)", "sequence (Q96KQ7 whole entry, looked up)": "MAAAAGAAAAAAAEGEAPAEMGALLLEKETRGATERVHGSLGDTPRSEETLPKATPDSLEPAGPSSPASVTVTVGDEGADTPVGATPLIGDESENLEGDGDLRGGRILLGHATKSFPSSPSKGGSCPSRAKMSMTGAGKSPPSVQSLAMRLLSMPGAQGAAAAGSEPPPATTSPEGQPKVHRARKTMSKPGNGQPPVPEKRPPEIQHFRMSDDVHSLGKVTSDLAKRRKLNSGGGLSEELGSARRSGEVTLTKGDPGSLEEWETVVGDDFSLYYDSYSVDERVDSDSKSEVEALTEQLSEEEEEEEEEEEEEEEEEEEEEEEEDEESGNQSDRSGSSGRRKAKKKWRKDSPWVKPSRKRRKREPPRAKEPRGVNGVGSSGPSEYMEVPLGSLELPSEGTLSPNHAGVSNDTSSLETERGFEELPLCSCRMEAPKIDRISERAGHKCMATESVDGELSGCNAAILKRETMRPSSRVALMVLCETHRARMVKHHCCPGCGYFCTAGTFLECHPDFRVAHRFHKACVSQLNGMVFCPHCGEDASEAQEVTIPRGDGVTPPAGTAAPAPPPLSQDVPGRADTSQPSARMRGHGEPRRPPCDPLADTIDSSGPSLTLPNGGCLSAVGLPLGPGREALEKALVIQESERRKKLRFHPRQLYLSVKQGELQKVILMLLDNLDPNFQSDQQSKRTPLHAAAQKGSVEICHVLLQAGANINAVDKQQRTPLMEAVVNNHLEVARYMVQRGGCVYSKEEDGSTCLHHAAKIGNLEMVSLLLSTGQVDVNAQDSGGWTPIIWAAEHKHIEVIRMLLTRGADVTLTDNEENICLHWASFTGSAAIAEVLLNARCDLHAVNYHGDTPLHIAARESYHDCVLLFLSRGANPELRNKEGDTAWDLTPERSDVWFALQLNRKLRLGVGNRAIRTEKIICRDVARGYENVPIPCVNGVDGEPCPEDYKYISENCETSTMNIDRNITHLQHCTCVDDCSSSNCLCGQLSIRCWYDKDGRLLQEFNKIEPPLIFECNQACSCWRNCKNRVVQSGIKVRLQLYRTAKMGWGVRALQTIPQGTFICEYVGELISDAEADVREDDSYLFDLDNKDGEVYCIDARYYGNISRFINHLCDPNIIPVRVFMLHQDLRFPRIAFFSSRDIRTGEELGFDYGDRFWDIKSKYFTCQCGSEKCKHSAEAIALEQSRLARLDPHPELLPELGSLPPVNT", "experiment": "qHTS Assay for Inhibitors of Histone Lysine Methyltransferase G9a; also: nearly all actives have a fitted effect of over 75% in size", "conditions": "G9a H3K9 monomethylation, AlphaScreen, 2 h; activity, negative = inhibition: at 59 µM (top of the series) unless noted", "how_it_was_run": "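Chemiluminescent proximity detection of H3K9 monomethylation, read after 10 min bead incubation in the dark. Reaction: 20 nM G9a, 500 nM biotin-H3K9 peptide, 20 uM SAM cofactor, 2 h, room temperature, following 15 min enzyme-compound preincubation.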", "values": [{"smiles": "CN(c1ccccc1)c1nc(N)c([N+](=O)[O-])c(NCCO)n1", "Potency": "inconclusive: 79.4 µM [inhibitor, partial curve, poor fit]"}, {"smiles": "CCC(C)NC(=S)N(Cc1cc2cc(C)ccc2n2nnnc12)CC(C)(C)NC(C)C", "note": "(stereo unspecified)", "Potency": "inconclusive: 31.6 µM [inhibitor, partial curve, poor fit]"}, {"smiles": "Cc1ccc(Cl)cc1S(=O)(=O)N1CCC(C(=O)NC2CCN(Cc3ccccc3)CC2)CC1", "activity, negative = inhibition": "inactive: 17% [at 102 µM]"}, {"smiles": "COCCCNCCCCOc1ccc(C)cc1[N+](=O)[O-]", "Potency": "active: 11.2 µM"}, {"smiles": "CCC(CC)COC(=O)C(C#N)c1nc2ccccc2nc1N1CCN(CC)CC1", "note": "(stereo unspecified)", "Potency": "active: 44.7 µM"}, {"smiles": "CCc1cc2c3c(c1)C1(C(=O)N3C(C)(C)C=C2C)C(C#N)=C(N)Oc2[nH]c(=O)[nH]c(=O)c21", "note": "(stereo unspecified)", "Potency": "active: 50.1 µM"}, {"smiles": "COc1ccc(-n2c(=O)c3c(c4cc(OC)ccc4n3C)n(Cc3cc(C)ccc3C)c2=O)cc1", "activity, negative = inhibition": "inactive: 4.06%"}, {"smiles": "NC1=NN=C(N2N=C(c3ccc(Br)cc3)CC2(O)C(F)(F)F)n2ncnc2C1", "note": "(stereo unspecified)", "activity, negative = inhibition": "inactive: 122%"}, {"smiles": "COc1ccc(CN2CN(S(=O)(=O)c3cccs3)c3nc4ccccc4nc32)cc1", "activity, negative = inhibition": "inactive: -37.3% [at 102 µM]"}, {"smiles": "O=C1CC(Nc2ccccc2)C(=O)N1CCc1ccccc1", "note": "(stereo unspecified)", "activity, negative = inhibition": "inactive: 5.65%"}, {"smiles": "CCOC(=O)C1CCN(C(c2cc(OC)c(OC)c(OC)c2)c2sc3nc(C)nn3c2O)CC1", "note": "(stereo unspecified)", "Potency": "inconclusive: 22.4 µM [inhibitor, partial curve, poor fit]"}, {"smiles": "CC(=O)NC1C(=O)SC1(C)C", "note": "(stereo unspecified)", "Potency": "active: 28.2 µM"}, {"smiles": "C=CC[N+](C)(C)C/C(Cl)=C(\\Cl)c1ccccc1", "Potency": "inconclusive: 22.4 µM [inhibitor, single point]"}, {"smiles": "N#Cc1cnc(SCCc2ccccc2)nc1N", "Potency": "inconclusive: 10 µM [inhibitor, partial curve, poor fit]"}, {"smiles": "CCc1ccccc1NC(=O)CNC(=O)c1cccc(S(=O)(=O)N2CCN(Cc3ccccc3)CC2)c1", "Potency": "inconclusive: 89.1 µM [inhibitor, partial curve, poor fit]"}, {"smiles": "O=P(O)(CP(=O)(c1ccccc1)c1ccccc1)c1ccccc1", "Potency": "inconclusive: 11.2 µM [inhibitor, partial curve, poor fit]"}, {"smiles": "Cc1ccc(NC(=O)Cn2c(=O)n(-c3ccccc3)c(=O)c3ccc(C(=O)NCc4ccc5c(c4)OCO5)cc32)c(C)c1", "activity, negative = inhibition": "inactive: 11.2%"}, {"smiles": "CCC1=[N+](CC(=O)c2ccc(Br)cc2)CCn2c(C)ccc21", "Potency": "active: 31.6 µM"}, {"smiles": "Cc1cccc(CNC(=O)c2ccc(NC(=O)N3CC(C)Sc4ccccc43)cc2)c1", "note": "(stereo unspecified)", "activity, negative = inhibition": "inactive: 7.84%"}, {"smiles": "CCOc1ccc(N/C(SCc2cccc([N+](=O)[O-])c2)=C(/C#N)C(N)=O)cc1", "Potency": "inconclusive: 11.2 µM [inhibitor, full curve]"}, {"smiles": "COc1ccc2nc(C)cc(N3CCN(c4ccccc4)CC3)c2c1", "Potency": "inconclusive: 79.4 µM [inhibitor, single point]"}, {"smiles": "COc1ccccc1N1CCN(c2ncnc3sc(C)c(-c4ccccc4)c23)CC1", "Potency": "inconclusive: 31.6 µM [inhibitor, full curve]"}, {"smiles": "COc1ccc(N2CCN(C(=O)c3ccc(-c4nc5ccccc5s4)o3)CC2)cc1", "Potency": "inconclusive: 3.98 µM [inhibitor, single point]"}, {"smiles": "COc1cccc(CC(NC(C)=O)C(=O)NC2CCN(C(=O)c3ccc(Cl)cc3)CC2)c1", "note": "(stereo unspecified)", "activity, negative = inhibition": "inactive: 0.142% [at 102 µM]"}, {"smiles": "CCOC(=O)c1c(C)[nH]c(C2=NNC(=Nc3ccccc3OC)SC2)c1C", "Potency": "inconclusive: 89.1 µM [inhibitor, single point]"}, {"smiles": "CCN(CCCNC(=O)CCc1nc(-c2ccc(OC)cc2)no1)c1cccc(C)c1", "Potency": "active: 25.1 µM"}, {"smiles": "O=c1[nH]nc(Cc2ncc(C(F)(F)F)cc2Cl)c2ccccc12", "activity, negative = inhibition": "inactive: 8.82% [at 102 µM]"}, {"smiles": "Cc1n[nH]c(C)c1S(=O)(=O)N(CC(=O)N1CCc2ccccc21)c1ccc(C(C)C)cc1", "Potency": "inconclusive: 89.1 µM [inhibitor, single point]"}, {"smiles": "COc1cc(/C=N/NC(=O)CCN2CCN(C(c3ccccc3)c3ccccc3)CC2)ccc1O", "Potency": "active: 79.4 µM"}, {"smiles": "COc1ccc(CN2CCc3ccccc3C2)c(OC)c1", "activity, negative = inhibition": "inactive: -128%"}, {"smiles": "O=C(O)c1ccc(/C=C2\\SC(=S)N(NC(=O)c3ccccc3)C2=O)cc1", "Potency": "inconclusive: 89.1 µM [inhibitor, single point]"}, {"smiles": "Cc1ccc(NC(=O)c2sc3nc4c(c(-c5ccco5)c3c2N)CCC4)cc1", "Potency": "inconclusive: 89.1 µM [inhibitor, partial curve, poor fit]"}, {"smiles": "CN1CCc2c(sc(NC(=O)c3ccc(C(=O)c4ccccc4)cc3)c2C(N)=O)C1", "Potency": "inconclusive: 79.4 µM [inhibitor, single point]"}, {"smiles": "O=C(CCN1C(=O)c2ccccc2C1=O)C1=NN[C@@H]2C(=O)N(c3ccc(F)cc3)C(=O)[C@H]12", "Potency": "inconclusive: 3.16 µM [inhibitor, partial curve, poor fit]"}, {"smiles": "Cc1cc(C)cc(NC(=O)CCn2ccnc2)c1", "activity, negative = inhibition": "inactive: 8.24% [at 102 µM]"}, {"smiles": "Cc1ccc(S(=O)(=O)/N=C(\\CN2CCOCC2)N2CCOCC2)cc1", "Potency": "inconclusive: 89.1 µM [inhibitor, partial curve, poor fit]"}, {"smiles": "COC(=O)c1ccccc1S(=O)(=O)NCc1nc2nc(C)cc(C)n2n1", "Potency": "inconclusive: 39.8 µM [inhibitor, partial curve, poor fit]"}, {"smiles": "Cn1c(Cn2nnc3ccccc32)nnc1SCC(=O)c1ccccc1F", "activity, negative = inhibition": "inconclusive: -70.6% [inhibitor]"}, {"smiles": "Cn1c(N)c(C(=O)COC(=O)C2CCCN2C(=O)c2cccs2)c(=O)n(C)c1=O", "note": "(stereo unspecified)", "Potency": "inconclusive: 28.2 µM [inhibitor, partial curve, poor fit]"}, {"smiles": "N#C/C(=C1\\C(=O)Nc2c(Cl)cc(Cl)cc21)c1nnc2n1CCCCC2", "Potency": "inconclusive: 56.2 µM [inhibitor, partial curve, poor fit]"}, {"smiles": "O=C(NC1CC2CCC(C1)N2Cc1ccccc1)c1cccc(F)c1", "note": "(stereo unspecified)", "activity, negative = inhibition": "inactive: -1.24% [at 102 µM]"}, {"smiles": "CCOC(=O)C1=C(CN2CCN(c3ccccc3F)CC2)NC(=O)NC1c1ccc(Cl)cc1", "note": "(stereo unspecified)", "Potency": "inconclusive: 22.4 µM [inhibitor, partial curve, poor fit]"}, {"smiles": "Cc1ccc(S(=O)(=O)N2CCN(C(=O)COc3ccc(Br)cc3)CC2)cc1", "activity, negative = inhibition": "inactive: 11.5% [at 12.7 µM]"}, {"smiles": "CC(C)c1ccc(OCC(=O)Nc2cccc(C(=O)Nc3ccccc3C(=O)O)c2)cc1", "activity, negative = inhibition": "inactive: 21.3%"}, {"smiles": "COC(=O)c1scc(-c2ccc(C)cc2)c1S(=O)(=O)Nc1ccc(N(C)C)cc1", "Potency": "inconclusive: 11.2 µM [inhibitor, partial curve, poor fit]"}, {"smiles": "O=C(c1ccco1)N1CCN(C(c2cccs2)c2nnnn2C2CCCC2)CC1", "note": "(stereo unspecified)", "Potency": "inconclusive: 79.4 µM [inhibitor, partial curve, poor fit]"}, {"smiles": "Cc1cc(C(=O)CSc2nnc(NCc3ccccc3)s2)c(C)n1C", "activity, negative = inhibition": "inconclusive: -60.4% [inhibitor]"}, {"smiles": "O=C(CCc1ccccc1)N1CCN(S(=O)(=O)c2cccs2)CC1", "activity, negative = inhibition": "inactive: 25.1% [at 102 µM]"}, {"smiles": "O=C(c1nn2c(C(F)(F)F)cc(-c3ccco3)nc2c1Br)N1CCCc2ccccc21", "Potency": "active: 17.8 µM"}, {"smiles": "S=C(NCCN1CCOCC1)N1CCN(c2cccc(Cl)c2)CC1", "Potency": "active: 35.5 µM"}, {"smiles": "COc1ccc2oc(=O)c(-c3csc(Nc4ccc(O)cc4)n3)cc2c1", "Potency": "inconclusive: 7.94 µM [inhibitor, full curve, poor fit]"}, {"smiles": "Cc1nc(COc2ccccc2Cl)sc1-c1ccnc(N)n1", "activity, negative = inhibition": "inactive: 4.32% [at 102 µM]"}, {"smiles": "Cc1c(Cl)cccc1-n1nc(C)c2c(C(=O)NCc3ccccc3)cc(C3CC3)nc21", "Potency": "inconclusive: 31.6 µM [inhibitor, single point]"}, {"smiles": "O=[N+]([O-])c1ccc2c(c1)nc1n2CCSC1", "Potency": "inconclusive: 31.6 µM [inhibitor, single point]"}, {"smiles": "O=C(COC(=O)c1ccc[nH]c1=O)Nc1cc(S(=O)(=O)N2CCCCCC2)ccc1Cl", "Potency": "inconclusive: 79.4 µM [inhibitor, partial curve, poor fit]"}, {"smiles": "O=C(O)C1C2C=CC(C2)C1C(=O)NCc1ccco1", "note": "(stereo unspecified)", "Potency": "inconclusive: 50.1 µM [inhibitor, partial curve, poor fit]"}, {"smiles": "CCC(C)C(NC(=O)CCC(=O)OCC(=O)[C@@]1(O)CCC2[C@@H]3CCC4=CC(=O)C=C[C@]4(C)C3[C@@H](O)C[C@@]21C)C(=O)O", "note": "(stereo partly specified)", "activity, negative = inhibition": "inactive: 5.82% [at 102 µM]"}, {"smiles": "COc1cccc(OC)c1OCC(O)CN1CCN(c2ccccc2)CC1", "note": "(stereo unspecified)", "activity, negative = inhibition": "inconclusive: -57.7% [inhibitor]"}, {"smiles": "O=[N+]([O-])c1cc(C(F)(F)F)cc([N+](=O)[O-])c1NCc1cccnc1", "Potency": "active: 50.1 µM"}, {"smiles": "CCOc1ccc(NC(=O)CC2C(=O)N(c3ccccc3)C(=O)N2Cc2ccc3c(c2)OCO3)cc1", "note": "(stereo unspecified)", "activity, negative = inhibition": "inactive: 7.5%"}, {"smiles": "Cc1occc1C(=O)NNS(=O)(=O)c1ccc([N+](=O)[O-])cc1", "Potency": "inconclusive: 31.6 µM [inhibitor, single point]"}, {"smiles": "CCN(C(=O)COC(=O)c1ccc(O)cc1O)c1c(N)n(Cc2ccccc2)c(=O)[nH]c1=O", "Potency": "inconclusive: 8.91 µM [inhibitor, single point]"}, {"smiles": "O=C(CN1C(=O)c2cccc3cccc1c23)Nc1cccnc1", "Potency": "inconclusive: 3.98 µM [inhibitor, partial curve, poor fit]"}, {"smiles": "CCCCNC(=O)C(c1ccc(OCC(=O)OC)c(C(=O)OC)c1)N(CCOC)C(=O)CCCCCN1C(=O)NC(c2ccc(-c3ccccc3)cc2)C(C(=O)OCc2ccccc2)=C1C", "note": "(stereo unspecified)", "activity, negative = inhibition": "inconclusive: -55.9% [inhibitor] [at 12.7 µM]"}, {"smiles": "O=C(NNC(=O)c1cnccn1)c1cccc([N+](=O)[O-])c1", "Potency": "active: 0.562 µM"}, {"smiles": "COc1ccc(CCNC(=O)c2ccc3nc(N4CCOCC4)sc3c2)cc1OC", "Potency": "inconclusive: 89.1 µM [inhibitor, partial curve, poor fit]"}]}]}
